Experimental data published in the antibiotic and cytotoxicity screens of Wong et al. (2023).
The list shows a part of the results.

System: S. aureus RN4220
Assay: growth inhibition call (relative growth <= 0.2)
Details: 50 µM

Growth inhibition call, inactive:
COC(=O)[C@@H](N)c1cccc(OC)c1
C[C@@H]1CN([C@@H](C)CO)C(=O)c2cc(NC(=O)C3CCCCC3)ccc2O[C@@H](C)CCCCO[C@@H]1CN(C)S(=O)(=O)c1ccccc1
O=C(C[C@H]1C=C[C@H](NS(=O)(=O)c2ccc(F)cc2)[C@H](CO)O1)NCc1ccc(Cl)c(Cl)c1
COc1ccc(CN(C)C[C@@H]2OCCCC[C@@H](C)Oc3ccc(NC(=O)Nc4ccc(OC)cc4)cc3C(=O)N([C@@H](C)CO)C[C@@H]2C)cc1
C[C@@H]1CN([C@@H](C)CO)C(=O)c2cc(NC(=O)C3CC3)ccc2O[C@H]1CN(C)Cc1ccc2c(c1)OCO2
COC(=O)C1(N2CC3=C[C@@H]([C@@H](O)Cc4ccccc4)n4c(=O)n(C)c(=O)n4[C@@H]3[C@@H](C3CC3)O2)CCCC1
COc1cc(C)c(C(=O)Oc2cc(C)c(C(=O)O)c(O)c2)c(O)c1
C[C@@H]1CN([C@@H](C)CO)C(=O)c2cc(NS(=O)(=O)c3cn(C)cn3)ccc2O[C@H]1CN(C)S(=O)(=O)c1cn(C)cn1
C[C@@H]1CN([C@@H](C)CO)C(=O)c2cccc(NS(=O)(=O)c3cccs3)c2O[C@@H]1CN(C)S(=O)(=O)c1cn(C)cn1
COc1ccc(NC(=O)Nc2ccc3c(c2)C(=O)N([C@@H](C)CO)C[C@@H](C)[C@@H](CN(C)Cc2ccc(C(F)(F)F)cc2)O3)cc1
Cc1ccc(-c2nc(Nc3cccc(Cl)c3)sc2C)cc1
COc1ccc(cc1)S(=O)(=O)N1C[C@]2(CN(Cc3ccncc3)[C@H](CO)c3[nH]c4cc(ccc4c32)OC)C1
